Data from the supplement of paper PMC10681739.
The full ranking holds about 4,100 sequences; the median of “arbitrary fluorescence units” is about 780, and the highest 2% start at about 22,000. The list shows a part of the results.

biological target: T1, ETS1 (UniProt P14921); assay: ETS1 binding intensity (PBM fluorescence), ETS1 alone (arbitrary fluorescence units); higher = stronger binding; conditions: ETS1 concentration 1 nM; RUNX1 concentration 0 nM
T1 sequence: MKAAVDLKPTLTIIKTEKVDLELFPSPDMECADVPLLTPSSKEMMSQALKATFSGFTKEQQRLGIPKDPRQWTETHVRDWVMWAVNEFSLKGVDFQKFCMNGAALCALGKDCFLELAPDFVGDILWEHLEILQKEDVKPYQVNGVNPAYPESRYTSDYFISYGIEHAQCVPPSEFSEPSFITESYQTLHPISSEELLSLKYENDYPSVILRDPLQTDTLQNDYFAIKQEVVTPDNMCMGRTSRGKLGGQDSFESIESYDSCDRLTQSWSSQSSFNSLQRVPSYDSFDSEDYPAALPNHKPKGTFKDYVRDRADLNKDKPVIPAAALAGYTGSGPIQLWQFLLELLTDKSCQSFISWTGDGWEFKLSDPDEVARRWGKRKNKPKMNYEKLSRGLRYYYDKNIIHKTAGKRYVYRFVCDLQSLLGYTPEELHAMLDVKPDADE
Experimental: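 gcPBM on 36-bp genomic-derived probes (partner site mutated) containing one ETS1 site and no RUNX1 site. Recombinant human ETS1 (1 nM) was incubated alone or with RUNX1 (25 nM) and detected by anti-ETS1 antibody fluorescence. Values are medians over 4 replicate spots (not normalised). The probes sit in constant array flanks that are not printed.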

Row | Sequence | ETS1 binding intensity
1 | TTTCTCTGGCTGGACAGTTGGAGAAATGAGGAAGTT | 373
2 | GAAATCACACCAGCAAGCTTAAGTACAGGAAGAATA | 424
3 | TCAAGTGTTTATCACTGGGTCACCAGGAAGTGGCTT | 514
4 | AAGACCGGCCGTAAACCAGCAAGATGGCGTCCGGCC | 340
5 | ATTTGGCGCCCGCCGTAAAGCGCGGATGCGCGGCGT | 357
6 | ACAGTCGCACCGGAAGCTGCCCGAGGTGTTGACACA | 9810
7 | TCATTGGGGTTTCTGAAGCACACAGGAAGTCAGAAA | 1890
8 | TCGCATATGGCTCTGGGAGGAGGAAGGGAGGCCCAG | 341
9 | TCGGGGAAAGAGCGCTTCAGGTGCTTCCGTCGCTCC | 428
10 | CATCTACTGAGGAAGTGTAAGCTACAATAAGAAGCC | 560
11 | TACCAACAGGAATCTTTGGGGTCTAAACAGCAAACA | 435
12 | GATGTAGGTAAGAGAAGCAGGCACAGGATGCTGCCC | 432
13 | TGTGGCCAGCACGGAAGAGCCCCACCAGATGTGCTT | 378
14 | TGAGAAAACAGGAAGCGCCCAGTCACCAGAGAAAGC | 6320
15 | GCTTTGCAGTTTCCTCTGTGGAACACCAGACACAGT | 2430
16 | CTCTACTGCAGGCTGGCTAATCTTCGGAAACAAACA | 428
17 | AGGCTTGGGGCTAGACCAGGGTCTTCCTGCTGAAGA | 412
18 | ATGGGGTTGGGGCGGGAGCGTGCGTCCTTCCTGTGT | 826
19 | TTCTTCCCCCTTCCGGTCGCTGAGTGGATGAGGCCG | 16600
20 | CTGTGACTTTTGGGGTGGGGGAGGAAGAAGAGAGGG | 816
21 | CTCTGAACTTCCTCTCTTTTAACTACAACTTACTAC | 4200

Row | Sequence | ETS1 binding intensity
22 | GAAGATGCTGTCGTTGCATAGAGGAGGATATGAATC | 412
23 | CCAGGAAGTTCAAACTGGGTGGAGCCCACCCCAGCT | 469
24 | CCCGGCCACTTCCGCCTATTGAGGGCGTCGGCTAGG | 18600
25 | CCCTCCTGGGGTATTGGAGACCGGAAGCACATAGTC | 3540
26 | AAAGCAAACAGGAAGTGCTGTGATAACAAGGCCCCA | 12800
27 | AGGAGCCCACCCTCAGAGCTGTGATTTCCTGACTCG | 419
28 | GTGGGTAGGGAGGAAGCTGTGAAAGCACCTCCCCTC | 648
29 | ATTTTAGCATTTTCCTGCTCGGAGACAACATGTTTG | 1170
30 | GCCCCGCCCCCGGACGCCCAGCCGCTGTCCCAGCGA | 358
31 | ATAACTCGCGGCAAATGCTGGAGGAAGTACCGCCTT | 376
32 | TGAAAGCTCAGATATCTGGCCACCAGGAAATGCTGT | 375
33 | AAAACAACTTCCTTCCCCTCTCTCTCCACCAGAGTC | 3870
34 | CGGGGCGAAAGCACTGTTGGCTCATTTCCGGGTGGG | 1500
35 | AAGAGGAAGTCCCAAATTGCTTTTTATCCACCAACA | 764
36 | GTTTATGGCAGGAAAGCCTGATAACCTACAAACCCT | 412
37 | TCGTGAAAAAGGAAGTGGATAAAGTGGCTACGGCAA | 3240
38 | GCGCGGCCTGCAGCGCCACACAGTTTCCCGGGCGCC | 323
39 | GTCGCCTTCGGTGACTCAGCTCTTCCGGTCACCGCC | 5110
40 | AGGGTTTGTAGGTTATCAGGCTTTCCTGCCATAAAC | 507
41 | TGGAAGGCCGGAAAAGGTTTACCTCCACACTCCGGT | 2100
42 | CAAGCCAGGAAGAGGGCCCTCACCAGAAACAGCACT | 663

Row | Sequence | ETS1 binding intensity
43 | GCCACGGTGGCTGCTATTTCTGCCGCTTCCTGTTCC | 988
44 | GGGGTGCTGTTTAGGGCGGGTTTTTTCCGCCTTGGA | 427
45 | CATTTCACGTTCCGCTGACTTTCTCTGGGGCCCCAA | 478
46 | TAGGCTCCCGAGGTTCGGCCTTCCTCCCTCTGTGAC | 330
47 | CTTACCTACAGTTCCGCTTGCTGTGATTTCAGTTAC | 1240
48 | GGGGCTTGCTGCCGCTGAGCCGCCTTCCGCCCTCCC | 506
49 | CCCTCGGTGCTCGCCGCTGAGAGCTTTCCGGCCACG | 421
50 | CTGGGCCTCCCTTCCTCCTCCCAGAGCCATATGCGA | 566
51 | GTAGCCGATTTCCGATTGCCCGGCGCAGCTCCACCA | 3790
52 | GCCCGCGGCTCCGGAAGCGGCTGCAGCCCCGACCGG | 2160
53 | GGGGAGGACGCGGAAGAGGAGCTGAGGGAAGGGGGA | 873
54 | GCCCCTCTTCCTGACTCACACAGCCGCCTCTAGTCT | 2110
55 | GGCCGCCGCTTCCCGTCCAGGGCCGTAGTCTGCCCG | 2450
56 | GTGCCTTGTAGTCAGGTGGCTGGGCAGGATGTTTCT | 438
57 | GCCGGACCCTTCGGCCCCGGGACCGGACACCAGGCG | 344
58 | GAGCCGGAAGTGAAGGAGGGCTTCTGGGAGATGGAG | 9320
59 | CACTTGGTCTTCCTGCCCTTGGGGCCCTAACACCCT | 2540
60 | ACTGTGCGTTGGGGTCGTCCGCCATCCGCTGCAGCT | 403
61 | GCCCCACTTAGCGGCTGCGGATGAGCACGATGCGCA | 302
62 | TTTTTGGTCTCATGGAAAGAGCACAGGATGCAGAAT | 480
